Measured values taken from paper PMC13083723 (Patterns, 2026).
Hit rate of the full screen: of about 5,400 compounds, about 190 (3.5%) showed an effect of 50% or more. This is one part of the list.

System: Vero-E6
Assay: primary screen, phospholipidosis by LipidTOX staining; higher = more effect of the substance
Details: 10 µM
Procedure, shortened: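 Drug-induced phospholipidosis detected with HCS LipidTOX Red reagent in Vero-E6 cells. Compounds tested at 10 μM, with amiodarone (10 μM) as positive control and DMSO (0.1 v/v %) as vehicle.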

| Structure (SMILES) | result_ITMP |
| --- | --- |
| O=c1[nH]c2ccccc2n1C1CCN(CCOc2ccccc2)CC1 | 6.68% |
| NNC(=O)CN1C(=O)CN=C(c2ccccc2)c2cc(Br)ccc21 | 2.33% |
| CCOC(=O)c1ncn2c1[C@@H]1CCCN1C(=O)c1cc(OC)ccc1-2 | -2.2% |
| CC(C)(C)NCC(O)COc1cccc2c1C[C@H](O)[C@H](O)C2 (mixture of isomers) | -2.49% |
| O=C(O)c1ccc(-n2nc(-c3ccccc3O)nc2-c2ccccc2O)cc1 | -0.76% |
| CCC(CC)(NC(=O)C(C)C)C(=O)N[C@@H](CCCNC(=N)N)C(=O)NC1(C(=O)NC(c2ccc(F)cc2)c2ccc(F)cc2)CCCC1 | 1.23% |
| O=C(Nc1nc(-c2cc(Cl)cs2)c(N2CCN(C3CCCCC3)CC2)s1)c1cnc(N2CCC(C(=O)O)CC2)c(Cl)c1 | -2.43% |
| COc1cc(Cc2cnc(N)nc2N)c(C(C)C)cc1OC | -0.7% |
| NC(=O)OCC(O)COc1ccc(Cl)cc1 (stereo not shown) | 0.94% |
| N#CCCCSC(=N)N | -2.54% |
| O=C(NCc1cccc(O)c1)Nc1nc(-c2ccncc2)cs1 | 4.6% |
| Cc1nc[nH]c1CCN | 0.11% |
| COC(=O)CCc1ccc(OCC(O)CNC(C)C)cc1 (stereo not shown) | -2.41% |
| COCCOC(=O)C1=C(C)NC(C)=C(C(=O)OC(C)C)C1c1cccc([N+](=O)[O-])c1 (stereo not shown) | -4.25% |
| COc1c(C)c2c(c(O)c1C/C=C(\C)CCC(=O)OCCN1CCOCC1)C(=O)OC2 | 18.6% |
| CN1C(C(=O)Nc2ccccn2)=C(O)c2ccccc2S1(=O)=O | -3.43% |
| N#C/C(=C\c1cccn1S(=O)(=O)c1cccc([N+](=O)[O-])c1)S(=O)(=O)c1ccc(F)cc1 | 0.43% |
| CN1CCC(CNc2ccc3ncc(-c4cccc(OC(F)(F)F)c4)n3n2)CC1 | 62.4% |
| NC(=O)c1ccc[n+]([C@@H]2O[C@H](COP(=O)([O-])OP(=O)(O)OC[C@H]3O[C@@H](n4cnc5c(N)ncnc54)[C@H](O)[C@@H]3O)[C@@H](O)[C@H]2O)c1 | -1.76% |
| CNCCC=C1c2ccccc2C=Cc2ccccc21 | 42.4% |
| CC(C)[C@H](NS(=O)(=O)c1ccc(-c2ccc(Br)cc2)cc1)C(=O)O | -5.95% |
| CC(=O)O[C@H]1C[C@@H]2CC[C@@H]3[C@H](CC[C@@]4(C)[C@H]3C[C@H](N3CC[N+](C)(C)CC3)[C@@H]4OC(C)=O)[C@@]2(C)C[C@@H]1N1CC[N+](C)(C)CC1 | 0.99% |
| NCC(=O)CCC(=O)O | 9.37% |
| COc1ccc(CN(CCN(C)C)c2ncccn2)cc1 | -9.04% |
| O=C(/C=C/c1cccc(F)c1)NC1CC1 | -0.97% |
| Cc1sc(C)c2c1CCC=C2c1c[nH]cn1 | -0.01% |

| Structure (SMILES) | result_ITMP |
| --- | --- |
| Cc1cc2c(OCC(CNC(C)(C)C)OC(=O)c3ccccc3)cccc2[nH]1 (stereo not shown) | 3.74% |
| CONC(=N)c1ccc(-c2ccc(-c3ccc(C(=N)NOC)cc3)o2)cc1 | 0.35% |
| Cc1ccc(Sc2ccccc2N2CCNCC2)c(C)c1 | 57.3% |
| CCC[N+]12C3C[C@H](C4C(O)[C@]5(C[C@@H]41)c1ccccc1N(C)[C@@H]35)[C@H](CC)[C@H]2O (stereo partly shown) | -5.06% |
| O=c1[nH]c2cc(Cl)ccc2c(O)c1-c1cccc(Oc2ccccc2)c1 | -1.56% |
| Cc1ccc(C)c(OCCCC(C)(C)C(=O)O)c1 | -3.41% |
| C=C1C(=O)O[C@H]2[C@H]1CC/C(C)=C/CC[C@@]1(C)O[C@@H]21 [R4A_0002204_002 / SPE_K34851558] | 16.6% |
| Cc1c(N)nc([C@H](CC(N)=O)NC[C@H](N)C(N)=O)nc1C(=O)NC(C(=O)N[C@H](C)[C@@H](O)[C@H](C)C(=O)N[C@H](C(=O)NCCc1nc(-c2nc(C(=O)NCCCNCCCCN)cs2)cs1)[C@@H](C)O)[C@@H](O[C@H]1O[C@H](CO)[C@H](O)[C@@H](O)[C@H]1O[C@H]1O[C@H](CO)[C@@H](O)[C@@H](OC(N)=O)[C@@H]1O)c1c[nH]cn1 (stereo partly shown) | 12.8% |
| CN/C(=N\C#N)NCCSCc1csc(N=C(N)N)n1 | 2.7% |
| O=C(O)C(=O)Nc1cccc(-c2nn[nH]n2)c1 | -4.71% |
| Nc1ncnc2c1ncn2C1O[C@H](COP(=O)(O)O)[C@@H](O)[C@H]1O (stereo partly shown) | -0.69% |
| N=C(N)NCCC[C@H](N)C(=O)NCC(=O)N[C@@H](CC(=O)O)C(=O)N[C@@H](CO)C(=O)O | -0.37% |
| CCC(=O)O[C@]1(C(=O)COC(C)=O)CC[C@H]2[C@@H]3C[C@H](C)C4=CC(=O)C=C[C@]4(C)[C@H]3[C@@H](O)C[C@@]21C | -5.06% |
| COc1cc2c(cc1OC)[C@@H]1Cc3ccc(OC)c(OC)c3CN1CC2 | 0% |
| O=C(CCCN1CCC(O)(c2ccc(Cl)cc2)CC1)c1ccc(F)cc1 | 3.22% |
| CC(C)=CCC[C@](C)(O[C@@H]1O[C@H](CO)[C@@H](O)[C@H](O)[C@H]1O)[C@H]1CC[C@]2(C)[C@@H]1[C@H](O)C[C@@H]1[C@@]3(C)CC[C@H](O)C(C)(C)[C@@H]3CC[C@]12C | -6.64% |
| CCCCCCCCCCOc1cc2c(O)c(C(=O)OCC)cnc2cc1OCC | -0.21% |
| Cc1ccc(Oc2ccccc2-c2csc(NC3=NCCCN3)n2)c(C)c1 | 6.61% |
| CC(=O)NCCNc1cc(Cl)nn2c(-c3cccc(S(=O)(=O)N(C)C)c3)c(C)nc12 | -1.93% |
| COc1ccc2c(c1)C(=O)N(CCc1ccc(S(=O)(=O)NC(=O)NC3CCCCC3)cc1)C(=O)C2(C)C | -8.43% |
| C=CCc1ccc(O)c(-c2cc(CC=C)ccc2O)c1 | -1.71% |
| CC(=N)NCc1cccc(CN)c1 | -0.73% |
| NS(=O)(=O)Cc1noc2ccccc12 | -5.73% |
| CN(C)CCN(Cc1ccc(Cl)cc1)c1ccccn1 | 32.5% |
| C[C@H](NC[C@H](O)CP(=O)(O)Cc1ccccc1)c1ccc(Cl)c(Cl)c1 | -0.85% |
| CC(=O)c1cc([N+](=O)[O-])c(Sc2ccc(F)cc2F)s1 | -1.5% |
